# Assay results published in PubChem BioAssay AID1508642 (National Center for Advancing Translational Sciences (NCATS), 2021).
# Out of some 43,000 compounds screened, about 200 (0.47%) were called active. Another 12% or so got no clear call; they are omitted. Calls come from the whole dose curve; as a rule, active = well fitted cell-killing curve with a large enough effect; inconclusive = small, poorly fitted or top-dose-only effect, or effect the other way; inactive = flat fitted curve, though single readings scatter. The list shows a part of the results.
# Assay: Cell viability qHTS assay in S16 Pmp22-F2sN cells; note: nearly all actives have a fitted effect of over 65% in size
# Details: S16 Pmp22-F2sN Schwann cells (luciferase reporters placed in the Pmp22 gene) viability, CellTiter-Glo, 24 h; series mostly up to 57.5 µM; activity change, negative = cytotoxicity: at the top concentration
# Outline: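 S16 Schwann cells carrying the Pmp22-F2sN reporter, seeded in 1536-well format, were exposed to library compounds for 24 h at 37C. Viability was read as CellTiter-Glo luminescence after 15 min at room temperature.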
# % is set by controls: 0 for no effect and ±100 for the full control effect.
row,SMILES,"activity change, negative = cytotoxicity"
1,CCN(CCCNC(=O)Cn1ncc2c([nH]c3ccc(C)cc32)c1=O)c1ccccc1,inactive: 6.8%
2,N#Cc1cc2c(=O)n3ccccc3nc2n(-c2nnc(SCc3ccccc3Cl)s2)c1=O,inactive: 9.4%
3,CCC(Sc1nc2n[nH]c(C)c2c(=N)n1-c1ccccc1Cl)C(=O)N(CC)CC (stereo not drawn),inactive: -12.7%
4,Cc1cccc(NC(=O)c2cc3c(=O)n(Cc4cccnc4)ccc3nc2C)c1,inactive: -2.53%
5,COc1ccc(-c2noc(CNC(=O)COc3cccc(C)c3C)n2)cc1,inactive: 0.743%
6,O=C(COCc1cc(-c2ccc3c(c2)OCO3)on1)Nc1cc(Cl)ccc1O,inactive: 4.33%
7,O=C(NCCc1ccc(Cl)cc1)C1CCN(S(=O)(=O)c2ccc3[nH]ccc3c2)CC1,inactive: -2.25%
8,COc1ccc(CCNC(=O)C(=O)NCC(c2cccs2)S(=O)(=O)c2ccc(F)cc2)cc1 (stereo not drawn),inactive: -7.07%
9,COc1ccc(-c2nc(CSCC(=O)NCc3ccccc3Cl)c(C)o2)cc1OC,inactive: -12.5%
10,CCOC(=O)c1c(C)oc2nc(C)nc(NCCCN3CCN(c4cc(C)ccc4C)CC3)c12,inactive: 17.2%
11,Cc1ccc2nc(Cl)c3cc(C(=O)N4CCCCC4)sc3c2c1,inactive: -15.2%
12,COC(=O)c1cc(S(=O)(=O)NCC2CCN(Cc3cccc(F)c3)CC2)cn1C,inactive: 1.2%
13,Cc1cc(C)c(Cn2c(=O)n(CCCC(=O)NCc3ccc4c(c3)OCO4)c(=O)c3sccc32)c(C)c1,inactive: 0.787%
14,CNC(=O)C1CCC(Cn2c(=O)c3sccc3n(CC(=O)N3CCC(C)CC3)c2=O)CC1 (stereo not drawn),inactive: 1.24%
15,Cn1c(=O)c2c(nc(SCC(=O)Nc3ccc(F)c(F)c3)n2Cc2ccccc2F)n(C)c1=O,inactive: -3.96%
16,COc1ccc(N(C(=O)Cn2nnc3ccccc32)C(C(=O)NCc2ccccc2)c2ccc(F)cc2)cc1 (stereo not drawn),inactive: 2.78%
17,Cn1nnc2c(NCc3c(F)cccc3F)ncnc21,inactive: -8.17%
18,COc1ccc(N2CCN(Cc3nc4c(c(=O)[nH]c(=O)n4C)n3Cc3ccccc3F)CC2)cc1,inactive: -6.98%
19,O=C(CC(c1cccs1)N1Cc2ccccc2C1=O)Nc1ccc(F)cc1F (stereo not drawn),inactive: -10%
20,COc1ccc(C(CNC(=O)Cc2ccc(Cl)cc2)N2CCOCC2)cc1 (stereo not drawn),inactive: 9.77%
21,O=C(CSc1nc(=O)n(CCN2CCOCC2)c2c1CCC2)Nc1cccc(Cl)c1,inactive: 13.2%
22,Cc1cccc(CC(=O)NC2CC(=O)N(c3ccccc3)C2)c1 (stereo not drawn),inactive: -0.944%
23,CCc1ccccc1NC(=O)CSc1nc2ncccc2o1,inactive: 18.2%
24,O=C(CCc1ccccc1)N1CCc2c([nH]c3ccccc23)C1c1ccc(Cl)cc1 (stereo not drawn),inactive: -21.2%

row,SMILES,"activity change, negative = cytotoxicity"
1,COC(=O)c1ccc(Cl)cc1NC(=O)NC(C)c1c(-n2cccc2)sc(C)c1C (stereo not drawn),inactive: -5.46%
2,O=c1c2c3c(sc2n(Cc2ccccc2F)c(=O)n1-c1ccc(Cl)cc1)CCCC3,inactive: -1.29%
3,COc1ccc(NC(=O)CCc2nc3cccnc3n2-c2ccccc2)cc1Cl,inactive: 7.31%
4,CC(C)c1ccc(C2c3c(oc4ccc(Cl)cc4c3=O)C(=O)N2CCCN2CCOCC2)cc1 (stereo not drawn),inactive: 8.56%
5,Cc1ccc(O)c(NC(=O)c2cc(-c3ccc(F)cc3)on2)c1,inactive: 21%
6,Cc1cccc(C(=O)N2CCC(N3CCN(Cc4ccc(F)cc4)C(=O)C3=O)CC2)c1,inactive: -0.817%
7,Cc1cc(-c2ccc(S(=O)(=O)Nc3cc(Cl)ccc3C)s2)on1,inactive: -16.4%
8,COCCn1c(SCC(=O)Nc2cccc(C)c2C)nc2c(oc3ccccc32)c1=O,inactive: 17.3%
9,CCOC(=O)c1c(C)[nH]c(CCC(=O)NCc2cccc(OC)c2)c1C,inactive: 0.789%
10,Cc1ccc(Cl)cc1N1CCN(C(=O)CCn2c(=O)c3cccn3c3cccnc32)CC1,inactive: 1.11%
11,Cc1ccc(Cn2c(CO)cnc2SCc2cccc(F)c2)cc1,inactive: 6.51%
12,Cc1oc2ncn(C)c(=O)c2c1C(=O)N(Cc1ccccc1)C(C)C,inactive: -0.759%
13,Cc1ccccc1OCCCCn1c(C2CC(=O)N(c3ccccc3Cl)C2)nc2ccccc21 (stereo not drawn),inactive: 0.294%
14,Nc1c(C(=O)NCCc2ccccc2)nnn1CC(=O)Nc1ccc(Cl)cc1,inactive: 6.91%
15,O=C(CSc1nc2c([nH]c3ccccc32)c(=O)n1-c1ccccc1)c1ccc(Cl)cc1,inactive: 3.96%
16,C=Cc1ccc(Cn2c(C(=O)O)c(CNCCc3ccccc3)c3ccc(C)cc32)cc1,inactive: -7.37%
17,CCCn1c(CCC(=O)Nc2cccc(C)c2C)nc2cccnc21,inactive: 1.47%
18,COc1ccc(CC(=O)Nc2ccc3nc(Nc4cccc(Cl)c4)cc(C)c3c2)cc1,inactive: -8.73%
19,COCCCn1c(=O)c2sccc2n2c(CCCC(=O)Nc3ccc(F)c(F)c3)nnc12,inactive: 0.602%
20,Cc1ccc2nc(NC(=O)c3ccc(S(=O)(=O)N4CCCc5ccccc54)cc3)sc2c1,inactive: -1%
21,Cc1cc(C)nc(NS(=O)(=O)c2ccc(NC(=O)c3cc(=O)c4ccc(C)c(C)c4o3)cc2)n1,inactive: 1.76%
22,CN1CCN(C2(CNC(=O)c3ccc([N+](=O)[O-])cc3)CCCCC2)CC1,inactive: -10.4%
23,Cc1ccccc1-c1nc2scc(CCNC(=O)C(=O)Nc3ccc(F)cc3F)n2n1,inactive: -18.5%
24,O=C(C1CCCCC1)N(Cc1cccnc1)c1nc2c(F)cc(F)cc2s1,inactive: -19%
